Assay results reported in PubChem BioAssay AID588855 (National Center for Advancing Translational Sciences (NCATS), 2011).
The campaign covered roughly 410,000 compounds. About 5,000 (1.2%) were called active. Inconclusive results, whose numbers are uncertain, are shown with a selection of clear calls. The call rests on the fitted dose curve; in most records, active means well fitted inhibition curve with a large enough effect; inconclusive means small, poorly fitted or top-dose-only effect; inactive means no such curve, though single readings can be large or run the other way. Where the call is inconclusive, the potency comes from a doubtful curve fit.

experiment: qHTS for Inhibitors of TGF-b; conditions: HepG2 CAGA-GFP TGF-b/SMAD3 reporter, GFP fluorescence, 18 h, TGF-beta stimulated, 500 pg/mL final; series mostly up to 46.1 µM; further: nearly all actives have a fitted effect of over 65% in size
Outline: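 HEPG2 CAGA-GFP, 1000 cells/well; 2 h settle, 37 C; cpd via pin tool; TGF-b 500 pg/mL final; 18 h, 37 C; GFP imaging ex488/em500-530; %Activity normalised to -TGF-b and +DMSO controls; CRC fit, curve class.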
Potency means the concentration at half of the fitted maximal effect; tags describe the fitted curve by direction and shape.

SMILES	Potency
COc1cccc(C2(O)CCN(C(=O)Cc3cccnc3)CC2)c1	inconclusive: 4.47 µM [inhibitor, single point]
COc1cc(OC)cc(OC(=O)C2CCN(S(=O)(=O)c3ccc(OC)c(OC)c3)CC2)c1	inconclusive: 0.501 µM [inhibitor, full curve, poor fit]
CCN(CC)C1CC(=O)N(c2ccc(Br)cc2)C1=O (centres undefined)	inactive
O=C(OCn1nnc2ccccc2c1=O)c1cn(-c2ccccc2)nc1-c1cccnc1	inconclusive: 6.31 µM [inhibitor, partial curve, poor fit]
COc1ccc(OC)c(CCNC(=O)c2cnn(-c3ccccc3)c2C2CCN(C(=O)OC(C)(C)C)CC2)c1	inconclusive: 0.562 µM [inhibitor, full curve]
CCOc1ccc(N(CC(=O)NC2CCCCC2C)S(=O)(=O)c2c(C)noc2C)cc1 (centres undefined)	inactive
O=C(Nc1ccccc1)Oc1cccc(Br)c1	inactive
COC(=O)c1nc(C(=O)OC)c(C(=O)OC)nc1C(=O)OC	inconclusive: 22.4 µM [inhibitor, single point]
CC(C)(C)n1ncc2c(=O)n(Cc3ccccc3SC(F)(F)F)cnc21	inconclusive: 31.6 µM [inhibitor, single point]
NC(Cc1ccc(C(F)(F)F)cc1)c1csc(NC(=O)Nc2ccccc2)n1 (centres undefined)	inconclusive: 35.5 µM [inhibitor, single point]
CCN(CC)c1ccc(C(NC(=O)C(C)C)c2ccc3cccnc3c2O)cc1 (centres undefined)	inconclusive: 7.08 µM [inhibitor, full curve, poor fit]
C[N+](C)(C)CCN(Cc1ccc(Cl)cc1)c1ccccn1	inactive
OCC1OC(n2ccc3c2ncn2ncnc32)C(O)C1O (centres undefined)	active: 5.01 µM
OCCN(CC(O)COc1ccccc1)CC(O)Cn1ccc2ccccc21 (centres undefined)	inconclusive: 35.5 µM [inhibitor, single point]
N#Cc1c(SCC(=O)Nc2nccs2)nc2c(c1-c1ccco1)CCCC2	inactive
COc1ccccc1NC(=O)CSc1ncn(-c2ccccc2)n1	inactive
CCS(=O)(=O)N1CCC(C(=O)N2CCN(c3ccccc3)CC2)CC1	inconclusive: 35.5 µM [inhibitor, single point]
O=C(CNC(=O)c1ccc2c(c1)OCCO2)N/N=C/c1ccc(O)cc1O	inconclusive: 35.5 µM [inhibitor, single point]
c1coc(-c2nc3nc4ccccc4n3nc2-c2ccco2)c1	inconclusive: 3.16 µM [inhibitor, partial curve, poor fit]
CC(=O)NC1(c2ccccc2)CCN(c2cc(C)nc(-c3ccccc3)n2)CC1	inconclusive: 17.8 µM [inhibitor, single point]
CCCn1ccc2c(OCC(=O)NCc3ccccc3Cl)cccc2c1=O	inactive
Nc1c(Cl)ncnc1N/N=C/c1ccc2ccccc2n1	active: 4.47 µM
C[C@H]1CN([C@@H](C)CO)C(=O)Cc2cc(NC(=O)CCN3CCOCC3)ccc2O[C@@H]1CN(C)Cc1ccc(Oc2ccccc2)cc1	inconclusive: 35.5 µM [inhibitor, single point]

SMILES	Potency
CNc1cc(CSC)nc(SCc2ccc(Cl)cc2Cl)n1	inconclusive: 17.8 µM [inhibitor, partial curve]
COc1ccc(CCN(C)C(=S)NC(=O)c2ccc(F)cc2Cl)cc1OC	inactive
CCc1ccccc1NC(=O)NCc1ccc2c(c1)CCN2C(=O)c1ccccc1	inconclusive: 0.891 µM [inhibitor, partial curve, poor fit]
C[C@@]12C(=O)N(CC3CCCO3)CC(=O)N1[C@H]1c3ccccc3OC[C@@H]1[C@@H]2c1ccccc1 (some centres undefined)	inconclusive: 25.1 µM [inhibitor, single point]
COc1ccc(C2=NCCn3nc4cc([N+](=O)[O-])ccc4c32)cc1	inactive
NC1=NC[C@@H](Cc2ccc(O)cc2)N1CCc1cccc2ccccc12	inactive
Oc1ccc(/C=N/Nc2nc(N3CCCCCC3)nc(N3CCCCCC3)n2)c(O)c1	inconclusive: 10 µM [inhibitor, partial curve, poor fit]
Cc1onc(-c2ccccc2Cl)c1C(=O)Nc1sc2c(c1C#N)CCC2	inconclusive: 3.98 µM [inhibitor, full curve, poor fit]
CCC(=O)Oc1ccc2c(C)cc(=O)oc2c1C	inactive
CC(=O)c1ccc(N2CCN(C(=O)COc3ccc(F)cc3)CC2)c(F)c1	inactive
Cc1ccc(CC2SC(=Nc3ccccc3)N(c3ccccc3)C2=O)cc1 (centres undefined)	inconclusive: 0.112 µM [inhibitor, full curve, poor fit]
COc1ccc(S(=O)(=O)N2CCOCC2)cc1NC(=O)CC(C)c1ccccc1 (centres undefined)	inconclusive: 35.5 µM [inhibitor, partial curve, poor fit]
Cc1ccc(OCc2ccc(C(=O)Nc3ccc(S(N)(=O)=O)cc3)o2)cc1	inconclusive: 3.55 µM [inhibitor, single point]
COC(=O)c1ccc2c(=O)n(CCCCCC(=O)N3CCN(c4ccc(OC)cc4)CC3)c(=O)[nH]c2c1	inactive
Cc1c(CC(=O)NCCc2ccc(Cl)cc2)c(=O)oc2c(C)c3occ(C(C)(C)C)c3cc12	inactive
COc1ccc(CCC(=O)Nc2ccc(OC)c(S(=O)(=O)N3CCCCC3)c2)cc1OC	inconclusive: 35.5 µM [inhibitor, single point]
Clc1ccc(-c2cc(COc3ccc4ccccc4c3)no2)cc1	inconclusive: 17.8 µM [inhibitor, single point]
CC1=C(C(=O)Nc2ccc(C)cc2C)C(c2ccccc2)n2ncc(C(=O)Nc3ccccc3)c2N1 (centres undefined)	inactive
Cc1ccc(S(=O)(=O)NCCc2ccncc2)cc1C	inactive
O=C(c1c(F)cccc1F)N1CCN=C1SCc1ccccc1	inactive
CCOC(=O)c1c(N)sc2c1CCN(CCc1ccccc1)C2	inconclusive: 35.5 µM [inhibitor, single point]
COC(=O)c1c(NC(C)=O)sc(C(=O)Nc2ccccc2OC)c1C	inconclusive: 3.55 µM [inhibitor, single point]
CCCCCCCCSc1nnc(CSc2nc3nc(C)cc(C)n3n2)o1	inconclusive: 6.31 µM [inhibitor, single point]

SMILES	Potency
Cc1ccc(NC(=O)CC2S/C(=N/N=C/c3c[nH]c4ccccc34)NC2=O)cc1 (centres undefined)	inactive
COc1ccc(/C=N/Nc2cc(C)nc(NS(=O)(=O)c3ccc(C)cc3)n2)cc1	active: 12.6 µM
Cc1ccccc1CS(=O)(=O)c1ncc(Cl)c(C(=O)Nc2ccc(F)cc2)n1	active: 10 µM
CC(C)N(C(=O)Nc1ccc2nsnc2c1)C(C)C	inconclusive: 35.5 µM [inhibitor, single point]
CC(Sc1ccccc1)C(=O)N1CCN(S(=O)(=O)c2ccccc2)CC1 (centres undefined)	inconclusive: 6.31 µM [inhibitor, single point]
Fc1ccc(-c2cn3cc(Cc4ccc(Cl)cc4)sc3n2)cc1	inconclusive: 15.8 µM [inhibitor, single point]
COc1ccccc1CN1CC(=O)N2CSC[C@H]2C1=O	inactive
CCc1ccc(Nc2nc(N)nc(CSc3nc4ccccc4s3)n2)cc1	inconclusive: 35.5 µM [inhibitor, single point]
O=C(NNC(=O)c1ccccc1F)c1cccc(S(=O)(=O)N2CCc3ccccc32)c1	inconclusive: 15.8 µM [inhibitor, single point]
COc1ccc(C(=O)/C=C/c2ccsc2)cc1CSCC(=O)O	inactive
C=Cc1c(C)c2cc3[nH]c(cc4nc(cc5nc(cc1[nH]2)C(C)=C5CCC(=O)O)C(CCC(=O)O)=C4C)c(C)c3C=C	inconclusive: 10 µM [inhibitor, partial curve, poor fit]
CC(C)C#Cc1cnc2c(c1)C(=O)N([C@@H](C)CO)C[C@@H](C)[C@H](CN(C)Cc1cccc(F)c1)O2	inconclusive: 35.5 µM [inhibitor, single point]
CCOCc1cc(CN2CCN(c3cccc(Cl)c3)CC2)c(O)c2ncccc12	active: 2 µM
CCOc1ccc(OCC)c(S(=O)(=O)NCCOC23CC4CC(CC(C4)C2)C3)c1	inconclusive: 35.5 µM [inhibitor, single point]
O=C(NCCC1=CCCCC1)c1ccc2c(c1)ncn2-c1ccc(F)c(F)c1	inconclusive: 22.4 µM [inhibitor, single point]
COC(C[C@@H](O)CC(=O)COCc1ccccc1)OC	inconclusive: 35.5 µM [inhibitor, single point]
CCCCn1c(N)c(N(CCC(C)C)C(=O)CC2CCCC2)c(=O)[nH]c1=O	inactive
CC(=O)c1ccc(N2CCN(S(=O)(=O)c3ccc4[nH]c5c(c4c3)CCCC5)CC2)cc1	inconclusive: 1.58 µM [inhibitor, full curve]
Cn1c(=O)c2c(nc(CN3CCN(C(=O)c4ccco4)CC3)n2CCCc2ccccc2)n(C)c1=O	inactive
O=C1OCC2=C1C(c1ccc(F)cc1)c1cc3c(cc1N2)OCCO3 (centres undefined)	inconclusive: 6.31 µM [inhibitor, partial curve, poor fit]
O=C(NCC(=O)N(c1cccnc1)C(C(=O)NC1CCCC1)c1cccs1)c1cccs1 (centres undefined)	inconclusive: 11.2 µM [inhibitor, single point]
COc1ccccc1NS(=O)(=O)c1cc(-c2cnc(C3CC3)o2)ccc1C	inconclusive: 20 µM [inhibitor, single point]
COc1ccccc1NS(=O)(=O)c1cc(NC(=S)NCC2CCCO2)ccc1C (centres undefined)	inconclusive: 3.98 µM [inhibitor, partial curve, poor fit]
